The supplement of paper PMC8728848
This is one part of the list.

Key:
Assay in all cases: glycan array binding signal (z-score within array); higher = stronger binding
Conditions in all cases: glycan notation: IUPAC condensed, linker removed
[1] = target: Fuc(a1-2)[GalNAc(b1-3)]Gal
In short: (§1)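 Negative Z-scores can be read as non-binding. The Z-score is calculated within each array and then averaged across arrays of one protein sequence at different concentrations or buffers and across linkers. Arrays, 3228 in all, were curated from the Consortium for Functional Glycomics database and kept only where the protein sequence was available.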

Fuc(a1-3)GlcNAc = target: Fuc(a1-3)GlcNAc
In short: as §1

[2] = target: Fuc(a1-3)[Gal(b1-4)]Glc6S
In short: as §1

[3] = target: Fuc(a1-3)[Gal(b1-4)]GlcNAc
In short: as §1

[4] = target: Fuc(a1-3)[Gal(b1-4)]GlcNAc(b1-2)Man
In short: as §1

[5] = target: Fuc(a1-3)[Gal(b1-4)]GlcNAc(b1-2)Man(a1-3)[Fuc(a1-3)[Gal(b1-4)]GlcNAc(b1-2)Man(a1-6)]Man(b1-4)GlcNAc(b1-4)GlcNAc
In short: as §1

[6] = target: Fuc(a1-3)[Gal(b1-4)]GlcNAc(b1-2)Man(a1-3)[Fuc(a1-3)[Gal(b1-4)]GlcNAc(b1-2)Man(a1-6)]Man(b1-4)GlcNAc(b1-4)[Fuc(a1-6)]GlcNAc
In short: as §1

[7] = target: Fuc(a1-3)[Gal(b1-4)]GlcNAc(b1-3)Gal(b1-3)[Fuc(a1-4)]GlcNAc
In short: as §1

[8] = target: Fuc(a1-3)[Gal(b1-4)]GlcNAc(b1-3)Gal(b1-4)[Fuc(a1-3)]GlcNAc
In short: as §1

[9] = target: Fuc(a1-3)[Gal(b1-4)]GlcNAc(b1-3)Gal(b1-4)[Fuc(a1-3)]GlcNAc(b1-3)Gal(b1-4)[Fuc(a1-3)]GlcNAc
In short: as §1

[10] = target: Fuc(a1-3)[Gal(b1-4)]GlcNAc(b1-3)GalNAc
In short: as §1

[11] = target: Fuc(a1-3)[Gal(b1-4)]GlcNAc(b1-6)GalNAc
In short: as §1

[12] = target: Fuc(a1-3)[Gal(b1-4)]GlcNAc(b1-6)[Gal(b1-3)GlcNAc(b1-3)]Gal(b1-4)Glc
In short: as §1

[13] = target: Fuc(a1-3)[Gal(b1-4)]GlcNAc6S
In short: as §1

[14] = target: Fuc(a1-3)[Gal3S(b1-4)]Glc
In short: as §1

[15] = target: Fuc(a1-3)[Gal3S(b1-4)]GlcNAc
In short: as §1

[16] = target: Fuc(a1-3)[Gal3S(b1-4)]GlcNAc6S
In short: as §1

[17] = target: Fuc(a1-3)[GalNAc(b1-4)]GlcNAc
In short: as §1

[18] = target: Fuc(a1-3)[GalNAc(b1-4)]GlcNAc6S
In short: as §1

Fuc(a1-4)GlcNAc = target: Fuc(a1-4)GlcNAc
In short: as §1

Fuc(b1-3)GlcNAc = target: Fuc(b1-3)GlcNAc
In short: as §1

Gal(a1-2)Gal = target: Gal(a1-2)Gal
In short: as §1

Gal(a1-3)Gal = target: Gal(a1-3)Gal
In short: as §1

Gal(a1-3)Gal(b1-3)GlcNAc = target: Gal(a1-3)Gal(b1-3)GlcNAc
In short: as §1

[19] = target: Gal(a1-3)Gal(b1-3)GlcNAc(b1-2)Man
In short: as §1

[20] = target: Gal(a1-3)Gal(b1-3)GlcNAc(b1-2)Man(a1-3)[Gal(a1-3)Gal(b1-3)GlcNAc(b1-2)Man(a1-6)]Man(b1-4)GlcNAc(b1-4)GlcNAc
In short: as §1

[21] = target: Gal(a1-3)Gal(b1-3)GlcNAc(b1-3)GalNAc
In short: as §1

[22] = target: Gal(a1-3)Gal(b1-3)GlcNAc(b1-6)GalNAc
In short: as §1

[23] = target: Gal(a1-3)Gal(b1-3)[Fuc(a1-4)]GlcNAc(b1-2)Man(a1-3)[Gal(a1-3)Gal(b1-3)[Fuc(a1-4)]GlcNAc(b1-2)Man(a1-6)]Man(b1-4)GlcNAc(b1-4)GlcNAc
In short: as §1

Gal(a1-3)Gal(b1-4)Glc = target: Gal(a1-3)Gal(b1-4)Glc
In short: as §1

Gal(a1-3)Gal(b1-4)GlcNAc = target: Gal(a1-3)Gal(b1-4)GlcNAc
In short: as §1

[24] = target: Gal(a1-3)Gal(b1-4)GlcNAc(b1-2)Man
In short: as §1

[25] = target: Gal(a1-3)Gal(b1-4)GlcNAc(b1-2)Man(a1-3)[Gal(a1-3)Gal(b1-4)GlcNAc(b1-2)Man(a1-6)]Man(b1-4)GlcNAc(b1-4)GlcNAc
In short: as §1

[26] = target: Gal(a1-3)Gal(b1-4)GlcNAc(b1-3)GalNAc
In short: as §1

[27] = target: Gal(a1-3)Gal(b1-4)GlcNAc(b1-6)GalNAc
In short: as §1

[28] = target: Gal(a1-3)Gal(b1-4)[Fuc(a1-3)]GlcNAc
In short: as §1

[29] = target: Gal(a1-3)Gal(b1-4)[Fuc(a1-3)]GlcNAc(b1-2)Man(a1-3)[Gal(a1-3)Gal(b1-4)[Fuc(a1-3)]GlcNAc(b1-2)Man(a1-6)]Man(b1-4)GlcNAc(b1-4)GlcNAc
In short: as §1

Gal(a1-3)GalNAc = target: Gal(a1-3)GalNAc
In short: as §1

[30] = target: Gal(a1-3)[Gal(a1-4)]Gal(b1-4)GlcNAc
In short: as §1

[31] = target: Gal(a1-4)Gal(b1-3)GlcNAc(b1-2)Man(a1-3)[Gal(a1-4)Gal(b1-3)GlcNAc(b1-2)Man(a1-6)]Man(b1-4)GlcNAc(b1-4)GlcNAc
In short: as §1

Gal(a1-4)Gal(b1-4)Glc = target: Gal(a1-4)Gal(b1-4)Glc
In short: as §1

Gal(a1-4)Gal(b1-4)GlcNAc = target: Gal(a1-4)Gal(b1-4)GlcNAc
In short: as §1

[32] = target: Gal(a1-4)Gal(b1-4)GlcNAc(b1-2)Man(a1-3)[Gal(a1-4)Gal(b1-4)GlcNAc(b1-2)Man(a1-6)]Man(b1-4)GlcNAc(b1-4)GlcNAc
In short: as §1

[33] = target: Gal(a1-4)Gal(b1-4)GlcNAc(b1-3)Gal(b1-4)Glc
In short: as §1

Gal(a1-4)GlcNAc = target: Gal(a1-4)GlcNAc
In short: as §1

B1: MSMEG3662-2a (Mycobacterium smegmatis), A0QYH7_MYCS2 (protein)
chain: MGDTLTAGQKLERGGSLQSGNGAYTLTLQDDGNLVLYARDKAVWSTGTNGQDVVRAEVQTDGNFVLYTAEKPVWHTDTKGKKEVKLVLQDDRNLVLYAKDGPAWSSKTDTTEPPPPAPEPEKEAEVAPAAAEEAAPAPVAEPAPAEPAPAAPPPAPPAPRTYTVVSGDTLWAIAERFYGDGSKYQQIADASGIANPDLIHPGQVLTIP
[1]
  glycan array binding signal (z-score): -0.143
Fuc(a1-3)GlcNAc
  glycan array binding signal (z-score): -0.066
[2]
  glycan array binding signal (z-score): -0.126
[3]
  glycan array binding signal (z-score): -0.042
[4]
  glycan array binding signal (z-score): -0.036
[5]
  glycan array binding signal (z-score): 0.087
[6]
  glycan array binding signal (z-score): -0.103
[7]
  glycan array binding signal (z-score): -0.188
[8]
  glycan array binding signal (z-score): 0.074
[9]
  glycan array binding signal (z-score): -0.178
[10]
  glycan array binding signal (z-score): -0.161
[11]
  glycan array binding signal (z-score): 0.055
[12]
  glycan array binding signal (z-score): -0.214
[13]
  glycan array binding signal (z-score): 0.036
[14]
  glycan array binding signal (z-score): 0.023
[15]
  glycan array binding signal (z-score): -0.028
[16]
  glycan array binding signal (z-score): -0.129
[17]
  glycan array binding signal (z-score): 0.413
[18]
  glycan array binding signal (z-score): -0.173
Fuc(a1-4)GlcNAc
  glycan array binding signal (z-score): 11.1
Fuc(b1-3)GlcNAc
  glycan array binding signal (z-score): -0.062
Gal(a1-2)Gal
  glycan array binding signal (z-score): -0.085
Gal(a1-3)Gal
  glycan array binding signal (z-score): -0.03
Gal(a1-3)Gal(b1-3)GlcNAc
  glycan array binding signal (z-score): 0.059
[19]
  glycan array binding signal (z-score): -0.093
[20]
  glycan array binding signal (z-score): -0.109
[21]
  glycan array binding signal (z-score): -0.226
[22]
  glycan array binding signal (z-score): -0.085
[23]
  glycan array binding signal (z-score): -0.073
Gal(a1-3)Gal(b1-4)Glc
  glycan array binding signal (z-score): -0.133
Gal(a1-3)Gal(b1-4)GlcNAc
  glycan array binding signal (z-score): -0.174
[24]
  glycan array binding signal (z-score): -0.203
[25]
  glycan array binding signal (z-score): -0.142
[26]
  glycan array binding signal (z-score): -0.096
[27]
  glycan array binding signal (z-score): -0.123
[28]
  glycan array binding signal (z-score): -0.102
[29]
  glycan array binding signal (z-score): 0.053
Gal(a1-3)GalNAc
  glycan array binding signal (z-score): -0.104
[30]
  glycan array binding signal (z-score): -0.039
[31]
  glycan array binding signal (z-score): 0.005
Gal(a1-4)Gal(b1-4)Glc
  glycan array binding signal (z-score): 0.031
Gal(a1-4)Gal(b1-4)GlcNAc
  glycan array binding signal (z-score): 0.028
[32]
  glycan array binding signal (z-score): 0.003
[33]
  glycan array binding signal (z-score): 0.136
Gal(a1-4)GlcNAc
  glycan array binding signal (z-score): -0.172
